Source: PubChem BioAssay AID1159614 (National Center for Advancing Translational Sciences (NCATS), 2016)
The whole screen tested about 45,000 compounds, of which about 65 (0.1%) were called active. Calls follow the shape of the dose curve; as a rule, active = well fitted activation curve with a large enough effect; inconclusive = small, poorly fitted or top-dose-only effect; inactive = no such curve, though single readings can be large or run the other way. The list shows a part of the results.

biological target: Galactocerebrosidase (Homo sapiens) (UniProt P54803); assay: A Novel Cell-Based Assay to Identify Small Molecules for B -Galactocerebrosidase; details: 145M-Twi-hGALC-G270D cells (Twitcher mouse brain line with human GALC G270D), HMU-beta-Gal fluorescence, 48 h; series mostly up to 57.5 µM; activation: at the top concentration; also: 0% is about no effect; nearly all actives have a fitted effect of over 65% in size
Summary of the method: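 Brain-derived Twitcher mouse 145M-Twi cells stably expressing human GALC-G270D or wild-type GALC, treated live, then residual GALC activity read by fluorescence of HMU-b-Gal substrate (0.1 mM final) in citrate-phosphate buffer pH 5.2 with sodium taurocholate. Signal increase indicates enhancement.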

Sequence of UniProt P54803 (P54803 whole entry, looked up): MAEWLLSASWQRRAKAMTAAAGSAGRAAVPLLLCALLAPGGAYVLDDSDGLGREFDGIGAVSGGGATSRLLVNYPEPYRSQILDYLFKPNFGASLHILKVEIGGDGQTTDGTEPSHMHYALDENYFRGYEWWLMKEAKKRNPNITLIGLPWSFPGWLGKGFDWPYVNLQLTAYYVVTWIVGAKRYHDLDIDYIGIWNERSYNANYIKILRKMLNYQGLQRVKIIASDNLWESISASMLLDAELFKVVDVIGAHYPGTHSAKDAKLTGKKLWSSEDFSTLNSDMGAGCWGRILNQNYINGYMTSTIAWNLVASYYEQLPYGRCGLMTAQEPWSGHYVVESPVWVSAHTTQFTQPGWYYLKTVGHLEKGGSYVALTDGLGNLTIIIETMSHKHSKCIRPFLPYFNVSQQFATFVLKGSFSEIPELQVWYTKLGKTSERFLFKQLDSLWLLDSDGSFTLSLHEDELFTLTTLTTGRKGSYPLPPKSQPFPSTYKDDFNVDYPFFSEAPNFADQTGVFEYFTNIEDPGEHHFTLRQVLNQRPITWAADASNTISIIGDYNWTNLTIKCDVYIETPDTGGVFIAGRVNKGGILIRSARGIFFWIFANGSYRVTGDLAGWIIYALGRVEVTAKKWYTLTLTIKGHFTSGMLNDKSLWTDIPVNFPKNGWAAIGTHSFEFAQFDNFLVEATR

activation, inactive:
Cc1ccc(Cn2ccc(NC(=O)c3cc(-c4ccc(Cl)c(Cl)c4)on3)n2)cc1 -18.5%
COCCc1nn2c(=O)cc(COC(=O)c3ccc(C(C)(C)C)cc3)nc2s1 -19.7%
CCC1CN(C(=O)N2CCC(C(=O)NCc3cccs3)CC2)c2cc(C)ccc2O1 (stereo not drawn) -16.5%
COc1ccccc1CNC(=O)c1cccc(Nc2nc3ccccc3n3nnnc23)c1 -19.5%
Cc1ccc2nc(N3CCN(c4cccc(C)c4C)CC3)c3nnnn3c2c1 -8.95%
CC(C)(C)C(=O)Nc1c(C(=O)N2CCN(c3ccc(F)cc3)CC2)oc2ccccc12 -8.69%
COc1ccc(NC(=O)Cc2csc(C)n2)cc1 -10.7%
O=C(CC1(O)C(=O)N(CCc2ccccc2)c2ccc(Br)cc21)c1ccccc1O (stereo not drawn) -12.7%
CCOc1ccc(-c2cc(C(=O)NCc3ccccc3)c3c(-c4ccc(CC)cc4)[nH]nc3n2)cc1 -7.39%
O=C(COc1ccc(F)cc1)Nc1ccc2nc(SCc3ccccc3)sc2c1 -8.35%
CCc1cccc(NC(=O)CSc2ncc3c(n2)-c2ccccc2N(Cc2ccccc2C)S3(=O)=O)c1 -1.37%
Cc1ccccc1Nc1c2c(nc3nncn13)CCC2 -7.71%
Oc1ccc(CCNCCCCCCNCCc2ccccc2)cc1O -14.4%
CC(=O)c1ccc(NC(=O)NCCc2c[nH]c3ccccc23)cc1 -5.45%
CC1CCN(CCNC(=O)c2ccc(Cn3c(SCc4ccccc4)nc4cccnc43)cc2)CC1 -16.2%
Cc1cccc(-c2nc3scc(CCNC(=O)c4ccccc4Cl)n3n2)c1 -25.1%
CCOC(=O)C1CCN(S(=O)(=O)c2cc(-c3cc(C)no3)ccc2C)CC1 -15.8%
CCCCCn1c(=O)[nH]c2cc(C(=O)Nc3ccc(F)cc3)ccc2c1=O -9.31%
CC(C)c1nn2c(=O)cc(COC(=O)c3ccc(NC(=O)CCc4ccccc4)cc3)nc2s1 -4.57%
Cc1cccc(NC(=O)CSc2nnc(CNC(=O)c3c(F)cccc3Cl)o2)c1C -16.1%
CCc1cccc(C)c1NC(=O)CSc1nnc(N)s1 1.2%
O=C(Cn1c(=O)nc(-c2ccccc2)c2ccccc21)NCCCc1ccccc1 -11.5%
COc1ccc(CCNC(=O)CS(=O)Cc2nc(-c3ccc(C)cc3)oc2C)c(OC)c1 (stereo not drawn) -10%
COc1ccc(CCNC(=O)C(=O)NCC(c2ccco2)S(=O)(=O)c2ccccc2)cc1OC (stereo not drawn) -18.8%
Nc1ccc(S(=O)(=O)Nc2cnc3ccccc3n2)cc1 -12.1%
Cc1ccccc1N1CCN(S(=O)(=O)c2nnc(NC(=O)c3ccc(Cl)cc3)s2)CC1 -4.11%
CCOc1ccccc1NS(=O)(=O)c1cnc(N)nc1 -3.55%
CCOc1ccc(NC(=O)c2ccc(F)c(S(=O)(=O)NCc3ccc4c(c3)OCO4)c2)cc1 -11.1%
CNC[C@H](O)[C@@H](O)[C@H](O)[C@H](O)CO -13.7%
COc1ccc(-n2c(SCc3ccccc3F)nc3c([nH]c4ccccc43)c2=O)cc1 -11.4%
O=C(NC1CC(=O)N(c2ccc(Cl)cc2)C1)c1ccc(S(=O)(=O)N2CCCC2)cc1 (stereo not drawn) -6.66%
Cc1oc2ncn(CC(C)C)c(=O)c2c1C(=O)NCCCN(Cc1ccccc1)C(C)C -12.2%
CCOc1ccc(NC(=O)CSc2nnc(-c3ccc(C)cc3)c(-c3ccc(C)cc3)n2)cc1 -10.1%
Cc1ccccc1CSc1nnc2[nH]c(=O)cc(C)n12 -9.53%
O=C(NCCCc1nc2ccccc2n1Cc1ccc(Cl)cc1)c1ccco1 -2.76%
O=C(Cn1cc(S(=O)(=O)Cc2ccc(F)cc2)c2ccccc21)NCc1ccccc1Cl -11.3%
CCCC12CN3CC(C)(CN(C1)C3c1cn(C)c3ccccc13)C2=O (stereo not drawn) -4.89%
CCc1cccc(NCc2ccccc2-c2nnc(-c3ccccc3Cl)o2)c1 -11.2%
CC(=O)c1ccc(NC(=O)C2CCC(CNS(=O)(=O)c3ccc4c(c3)CCCC(=O)N4)CC2)cc1 (stereo not drawn) -8.51%
CSc1nn(Cc2ccc(Br)cc2)c(N(C(C)=O)C(C)=O)c1S(=O)(=O)c1ccccc1 -7.57%
NCCCC(O)(P(=O)(O)O)P(=O)(O)O -17.5%
CCn1c(CN2CCOCC2)nc2cc(NC(=O)c3cc(OC)c(OC)c(OC)c3)ccc21 -10.4%
CCCCSCCCNC(=O)C1CCC(CNS(=O)(=O)c2ccccc2)CC1 (stereo not drawn) 13.1%
CCc1ccccc1NC(=O)C1CCCN(c2nnc(-n3c(C)ccc3C)s2)C1 (stereo not drawn) -12.8%
COc1ccccc1N1CCN(C(=O)Cc2c(C(=O)O)c(C)cn2C)CC1 -6.26%
COc1ccc(-c2cc(C(=O)NCc3ccccc3)c3c(-c4ccccc4)[nH]nc3n2)cc1 2.64%
CC1CCN(C(=O)Cn2ncc3c4ccccc4n(Cc4ccc(Cl)cc4)c3c2=O)CC1 -13.8%
O=C(Nc1ccc(F)cc1F)c1ccc2c(=O)n3c(nc2c1)CCCCC3 -1.05%
CCOc1ccc(CCNC(=O)c2ccc3nc(CC)c(CC)nc3c2)cc1 -21.5%
COc1cccc(-n2c(=O)c3sc4ccccc4c3n(CC(=O)Nc3cccc(Cl)c3)c2=O)c1 2.35%
Fc1ccc(CNc2nc3ccc(Cl)cc3n3nnnc23)cc1 0.621%
Cc1c(C(=O)N(C)c2cccc(C(F)(F)F)c2)sc2nc3n(c(=O)c12)CCCCC3 -5.77%
CCOc1ccc(OCC(=O)Nc2c(C(=O)Nc3ccc(C)cc3)oc3ccccc23)cc1 -9.66%
C=Cc1ccc(Cn2c(=O)n(-c3cccc(C)c3)c(=O)c3c2c2cc(C)ccc2n3C)cc1 2.48%
CCSc1ncc(Cl)c(C(=O)N2CCN(c3ccc(OC)cc3)CC2)n1 -10.5%
O=C1C(CCS(=O)c2ccccc2)C(=O)N(c2ccccc2)N1c1ccccc1 (stereo not drawn) -15.3%
Cc1ccc(S(=O)(=O)c2c(C)nn(-c3ccccc3)c2OC(=O)c2ccccc2F)cc1 -10.2%
CCN(CC)c1ccc(NC(=O)C2COc3ccc(OC)cc3C2)c(C)c1 (stereo not drawn) -14.3%
COC(=O)N[C@H](C(=O)N[C@@H](Cc1ccccc1)[C@@H](O)CN(Cc1ccc(-c2ccccn2)cc1)NC(=O)[C@@H](NC(=O)OC)C(C)(C)C)C(C)(C)C -7.18%
O=C(Nc1ccc2c(c1)N(C1CCCC1)C(=O)c1ccccc1S2)c1ccc(F)cc1 -10.8%
CCN(CC)CCCNC(=O)c1ccc2nc(CCc3ccccc3)oc2c1 -15%
O=S(=O)(c1cccc(Cl)c1)c1nnn2c1nc(NC1CCCCCC1)c1sccc12 -13.4%
Cc1cc(C)c(/C=C/c2onc(C)c2S(=O)(=O)N2CCC(C(=O)N3CCN(c4ccc(Cl)cc4)CC3)CC2)c(C)c1 -17.3%
Cc1ccc(NC(=O)Cn2c(C)cc(C)c(C#N)c2=O)cc1F -14.9%
Cc1ccc(C(=O)Nc2nc3n(n2)C(c2ccccc2)C=C(c2ccccc2)N3)cc1 (stereo not drawn) -9.79%
CN(CC(=O)Nc1ccc(F)cc1F)S(=O)(=O)c1ccc(C(=O)N2CCOCC2)s1 -22%
CC1CCc2onc(C(=O)N3CCN(c4cccc(C(F)(F)F)c4)CC3)c2C1 (stereo not drawn) -28.9%
COc1ccc(-c2nc3ccccc3s2)cc1NC(=O)c1cc2ccccc2o1 -11.2%
NC(=O)OCC(COC(N)=O)c1ccccc1 -18.4%
Cc1ccc(NC(=O)CCNS(=O)(=O)c2cccc3nsnc23)cc1 -4.64%
O=C(Cc1csc2ccccc12)NCc1ccccc1F 1.6%
CCOc1ccc(-c2nc(SCC(=O)Nc3ccc4c(c3)OCCO4)c(-c3ccc(F)cc3)[nH]2)cc1 -17.3%
CN1CCN(C(c2cccc(Br)c2)c2sc3nc(-c4ccco4)nn3c2O)CC1 (stereo not drawn) -1.72%
CCC(=O)N1CCc2cc(Br)cc(S(=O)(=O)CCC(=O)NCCc3ccccc3Cl)c21 -14.7%
CCOc1ccc(-c2nonc2NC(=O)c2ccc(C)cc2)cc1OCC -21.8%
O=C(Cn1nc(Cc2cccnc2)c2ccccc2c1=O)Nc1cccc(C(F)(F)F)c1 -33.1%
CCc1cccc(-n2nnc(-c3nc(-c4cccs4)no3)c2N)c1 -24.5%
CCC(=O)OCCCNc1nc(-c2ccc(Cl)cc2)nc2ccccc12 2.34%
CC(=O)N1CCCc2cc(S(=O)(=O)N3CCN(c4ccc(F)cc4)CC3)ccc21 -12.3%
COc1ccc(NC(=O)c2noc3c2CSc2ccccc2-3)cc1Cl 1.82%
COc1cccc(OC)c1C(=O)Nc1cccc(-c2nc3cc(C)cc(C)c3o2)c1 -17.3%
Clc1ccc2nc(-c3ccc(Br)o3)c(Nc3ccc4c(c3)OCCO4)n2c1 8.03%
O=C(CSc1nc2ccsc2c(=O)n1Cc1ccccc1F)NCc1ccccc1 0.317%
COc1ccc(S(=O)(=O)N(C)Cc2nc(-c3cccc(C)c3)no2)cc1 -13.6%
CCc1ccc(NC(=O)N(Cc2ccc(C)cc2)Cc2cccn2-c2nnc(N3CCCC3=O)s2)cc1 -3.11%
CCc1ccc(NC(=O)CN2C(=O)C(c3ccccc3)=NC23CCCCCC3)cc1 -25.8%
CCCc1cc(=O)n2[nH]c(-c3ccc(C)cc3)nc2n1 -16.8%
Cc1ccc(NC(=O)N2CCC(CN3CCC(C)CC3)CC2)cc1F -7.66%
COc1ccc(-c2cc(C(F)(F)F)nc(SCC(=O)NCCc3ccc(OC)c(OC)c3)n2)cc1 -15%
COc1cccc(CNC(=O)C(NS(=O)(=O)c2ccc3nc(C)sc3c2)C(C)C)c1 (stereo not drawn) 7%
Cc1ccc(NC(=O)C2CCCN(c3nnc(-n4c(C)ccc4C)s3)C2)cc1Cl (stereo not drawn) -6.27%
Cc1ccc2nc(CSc3nnc(NC(=O)COc4ccccc4)s3)cc(=O)n2c1 -10.1%
CCOC(=O)c1c(C)c(-c2ccccc2)n(CC(=O)NCCc2ccc(C)cc2)c1C -10.3%
CCCCc1ccc(NC(=O)COc2cccc3c(=O)n(C)ccc23)cc1 -14.5%
CCOC(=O)c1ccc(NC(=O)c2cc(=O)c3cc(CC)ccc3o2)cc1 -6.84%
CCS(=O)(=O)NCC(c1ccco1)N1CCN(c2ccc(OC)cc2)CC1 (stereo not drawn) 0.446%
CCN(CC)c1ccc(-n2nc3cc(C)c(NC(=O)c4ccccc4F)cc3n2)cc1 -0.935%
Cc1ccccc1CN1c2ccccc2-c2nc(SCC(=O)NCCc3ccccc3)ncc2S1(=O)=O -5.16%
